From ChEMBL document CHEMBL5308541, “MAIP: An Open-Source Tool to Enrich High-Throughput Screening Output and Identify Novel, Druglike Molecules with Antimalarial Activity” (ACS Med Chem Lett, 2023)
Among all 150,000 compounds or so, about 540 (0.36%) showed an effect of 50% or more. The list shows a part of the results.

tested on: Plasmodium falciparum; assay: Primary screen in NF54 nanoGlo assay, in single point, at 2uM, 72h; a lower Z score goes with more inhibition; type: functional, Erythrocyte; settings: timepoint 72 hour

| SMILES | % Inhibition | Z score |
| --- | --- | --- |
| Fc1ccc2c(c1)[C@@H](NC1CCC(Oc3cnccn3)CC1)CC2 (some centres not stated) | -3% | 0.64 |
| COc1nc(N2CCCN(c3ccnc(C)c3)CC2)ncc1F | 6% | -0.99 |
| CCS(=O)(=O)C1CN(C2CCCC2)C1 | -5% | 1.01 |
| CNc1nc(C)cc(-c2cccc(C(=O)N3CCC4(CCNCC4)C3)c2)n1 | 5% | -1.01 |
| COc1ccc2[nH]c(CNC(=O)c3cccc(-c4cn[nH]c4)c3)cc2c1 | -7% | 1.53 |
| Cc1cnccc1NCCNC(=O)CN(C)C1CCNCC1 | -6% | 1.03 |
| O=C(c1ccc(-c2cnc3[nH]ccc3c2)cc1)N1CCC2CNCC21 (configuration not stated) | 1% | -0.2 |
| COc1ccccc1N1CCN(C(=O)[C@]2(C)CCCO2)CC1=O | -13% | 2.32 |
| CN1CCN(CCOc2ccccc2NC2CCCC2)CC1 | -14% | 2.37 |
| N#Cc1ccc(-c2cc(-c3ccc(Nc4ccnc5cc(C(F)(F)F)ccc45)cc3)[nH]c(=O)c2C#N)cc1 | 1% | -0.21 |
| Cc1noc(-c2ccnc(N3CCO[C@H](c4ccccc4)C3)c2)n1 | 0% | 0.07 |
| CCc1cc(NC2CCN(CC(F)F)CC2)nc(-c2ccncc2)n1 | 4% | -0.75 |
| Cc1c(-c2nc3ccc(Cl)cc3[nH]2)c2ccccc2n1CC(N)=O | -1% | 0.26 |
| Cc1cnc(N2CCCN(C)CC2)nc1N1CCCN(C)CC1 | 17% | -2.92 |
| CN1CC(=O)N2C[C@@H](Nc3ncc(F)c(N(C)C)n3)C[C@H]2C1=O | 9% | -1.66 |
| COc1cccc(CNCCCNc2ccc(C)cn2)c1OCCCN(C)C | 5% | -0.86 |
| NCCc1cccc(CN2CCC[C@H](CN3CCCCC3)C2)c1 | 3% | -0.52 |
| CN1CCC(NC(=O)N2CCCC(Nc3ccc(N(C)C)nc3)CC2)C1=O (configuration not stated) | -4% | 0.8 |
| c1ccc(-c2ccnc(CCn3cnc(-c4ccccc4)c3-c3c[nH]cn3)n2)cc1 | 0% | 0 |
| Cc1nc(Nc2nc3ccccc3o2)nc2c1C(=O)CC(C)(C)C2 | 0% | -0.03 |
| CN1CCC(N2CCN(Cc3c(Cl)cncc3Cl)CC2)CC1 | 1% | -0.21 |
| O=C(Nc1ccc(N2CCC(NC[C@@H](c3ccc(F)cc3)N3CCCC3)CC2)cc1)c1cnccn1 | -3% | 0.59 |
| COc1ccc(-c2ccnc3c(-c4ccc(F)cc4)cnn23)c(O)c1 | 22% | -3.81 |
| COc1ccccc1-c1noc(C2CCN(Cc3ccc4cn[nH]c4c3)CC2)n1 | -6% | 0.96 |

| SMILES | % Inhibition | Z score |
| --- | --- | --- |
| CN1CCN(CCNc2cncc(-n3cccn3)n2)[C@H](c2ccccc2)C1 | 17% | -2.57 |
| COCCN1CCC(c2nccn2-c2cnc3ccccc3c2)CC1 | -14% | 2.4 |
| FC(F)(F)c1ccc(-c2c(-c3ccccc3)ncn2Cc2ncn[nH]2)cc1 | 31% | -5.37 |
| Cc1ccc2nc(OCc3ccccc3Cl)c(CN3CCC(N4CCC[C@H](CO)C4)CC3)cc2c1 | 3% | -0.47 |
| Clc1cccc(COc2cccc(-c3nccc4c3[nH]c3ccccc34)c2)c1 | -8% | 1.34 |
| O=C(CC1(C(=O)O)CCC1)N[C@@H]1CCOc2c(F)cccc21 | -6% | 0.97 |
| Cc1[nH]c2c(F)cccc2c1CC(=O)N1CCc2[nH]c(-c3cn[nH]c3)nc2C1 | 1% | -0.18 |
| CN1CCC(N2CCC(NC(=O)c3ccc(S(=O)(=O)N(C)C4CCCCC4)cc3)CC2)CC1 | 40% | -6.98 |
| COc1ccc2nccc(O[C@H]3CCN(C)C3)c2c1 | 8% | -1.49 |
| O=C([C@@H]1CCCN1c1ncnc2sccc12)N1CCCN(CC(F)F)CC1 | 1% | -0.2 |
| Cc1cc(C(=O)Cn2nnc(C3CC3)n2)c(C)[nH]1 | -2% | 0.38 |
| c1cc(-c2ccn[nH]2)cc(-c2cnn3cccnc23)c1 | -7% | 1.18 |
| Cn1cnnc1-c1cccc(NC2CCN(C3CCCCC3)CC2)c1 | -3% | 0.5 |
| Cc1ccc([C@@H](C)CCN2CCC(N3CCC(C(=O)N4CCCC4)CC3)CC2)o1 | 3% | -0.52 |
| c1cnc(N2CCCC2)c(Nc2nnc(-c3ccncc3)o2)c1 | -7% | 1.24 |
| CCc1c(C(=O)N(C)CCCN2CCCCCC2)[nH]c2ccccc12 | -12% | 2.12 |
| CC(C)Nc1cc(N2CCC(N3CCN(C)CC3)C(O)C2)ncn1 (configuration not stated) | -5% | 1.17 |
| OC1CN(C2CCOCC2)CC1N1CCN(c2ccncc2)CC1 (configuration not stated) | -6% | 0.86 |
| CCCCN(C)C[C@@H](C)NC(=O)CCCN1CCN(c2ccccc2)CC1 | -5% | 1.09 |
| C[C@@H](CC#N)N(C)C(=O)Nc1ccc2nc(Cc3ccccc3)oc2c1 | -15% | 2.91 |
| Cc1nc2ccc(C(=O)N(C)CCCc3c(C)n[nH]c3C)cc2s1 | -3% | 0.56 |
| N#CCCCOc1cccc(CNCc2nc3ccccc3[nH]2)c1 | -9% | 1.29 |
| CN1C[C@@H]2CN(c3cc4c(nn3)CCN(CC(O)CN(C)C3CC3)C4)C[C@@H]2C1 (some centres not stated) | 0% | 0.04 |
| Cc1nc2ccc(NC(=O)N[C@H]3CCN(CC4CCCC4)C3)cc2o1 | 7% | -1.05 |

| SMILES | % Inhibition | Z score |
| --- | --- | --- |
| Cc1cc(C)n([C@H]2CCN(C(=O)NC3(CN4CCOCC4)CCCC3)C2)n1 | -9% | 1.63 |
| CC(C)CN1CCC(OC2C[C@H]3CC[C@@H](C2)N3C(=O)c2ccc(C(C)C)cc2)CC1 (some centres not stated) | 1% | -0.21 |
| CC(NC(=O)C1CCCN1C1CCN(CC(F)(F)F)CC1)c1ccc2c(c1)CCCC2 (configuration not stated) | -5% | 1.06 |
| CN1CCC(N2CCC[C@H](NC(=O)c3ccccc3N3CCCC3)C2)CC1 | -1% | 0.29 |
| Cc1cccc(N2CCC(N3CCC(NC(=O)c4ccncc4)C(O)C3)CC2)c1 (configuration not stated) | -16% | 2.86 |
| CCOC(=O)NC1CCCN(C(CN2C(=O)c3ccccc3C2=O)C(=O)OC)C1 (configuration not stated) | 6% | -1.33 |
| Cc1cc(C[C@H](C)NS(=O)(=O)NCc2ccccc2)n[nH]1 | 1% | -0.1 |
| Cc1nn(CCC(=O)N(C)Cc2nccn2Cc2ccccc2)c(C)c1C | 7% | -1.19 |
| Cn1c(-c2ccccc2)c(-c2nc(-c3ccccc3)c(-c3ccccc3)[nH]2)c2ccccc21 | -16% | 3.5 |
| COCCn1cc(CN[C@H](c2ccccc2)C(C)(C)C(=O)O)cn1 | -14% | 2.15 |
| O=C(Cc1cc2ccccc2[nH]c1=O)N[C@H](CO)Cc1ccc(O)cc1 | -7% | 1.45 |
| Cc1ccn2ncnc2c1NC(=O)NC1CC(CCO)C1 (configuration not stated) | 5% | -0.91 |
| O=C1COc2ccc(Nc3nc(-c4ccccc4)c4ccccc4n3)cc2N1 | -8% | 1.18 |
| COc1cncc(-c2cccc([C@H](C)N3CCCC3)c2)c1 | 3% | -0.46 |
| CN1CC[C@@H](CNCc2ccc3cn[nH]c3c2)[C@@H]1c1cccnc1 | -4% | 0.56 |
| CC(C)c1nc(-c2ccc(N3CCN(C(=O)c4cc(-c5ccccc5)n[nH]4)CC3)nc2)no1 | 2% | -0.36 |
| COc1cccc2cc(C(=O)N(CCN(C)C)c3nc4ccc(OC(F)(F)F)cc4s3)oc12 | 2% | -0.44 |
| CN1CCN(CCOc2ccccc2CN2CC3CCC(C2)NC3)CC1 (configuration not stated) | -1% | 0.22 |
| Nc1nccc(-c2ccc(C(=O)NC[C@H](O)CN3CCCCCC3)cc2)n1 | -6% | 1.03 |
| CCN(CC1CCN(C2CCN(C)CC2)CC1)C[C@@H](C)Cc1ccc2c(c1)OCO2 | 21% | -3.69 |
| COC1CCN(c2nc(CN3CCN(c4ccccc4)C[C@@H]3C)nc3ccc(Cl)cc23)CC1 | -4% | 0.76 |
| CO[C@@]1(C(=O)N2CCC(c3ccnc4ccccc34)CC2)CCOC1 | 9% | -1.92 |
| CCCCN(Cc1ccc(F)cc1)C(=O)[C@@H]1CC2(CCNCC2)CN1C | 1% | -0.13 |
